Test results published in PMC4336329 (PLoS ONE, 2015).
Screen size: about 310,000 compounds; about 2,200 (0.71%) showed an effect of 50% or more. Effects have a minus sign here. This is one part of the list.

The compounds below were run against human ether-à-go-go-related gene (hERG) potassium channel (human, UniProt Q12809) (assay: primary screen, population patch clamp on CHO cells stably expressing hERG).
Chain of human ether-à-go-go-related gene (hERG) potassium channel (Q12809 whole entry, looked up): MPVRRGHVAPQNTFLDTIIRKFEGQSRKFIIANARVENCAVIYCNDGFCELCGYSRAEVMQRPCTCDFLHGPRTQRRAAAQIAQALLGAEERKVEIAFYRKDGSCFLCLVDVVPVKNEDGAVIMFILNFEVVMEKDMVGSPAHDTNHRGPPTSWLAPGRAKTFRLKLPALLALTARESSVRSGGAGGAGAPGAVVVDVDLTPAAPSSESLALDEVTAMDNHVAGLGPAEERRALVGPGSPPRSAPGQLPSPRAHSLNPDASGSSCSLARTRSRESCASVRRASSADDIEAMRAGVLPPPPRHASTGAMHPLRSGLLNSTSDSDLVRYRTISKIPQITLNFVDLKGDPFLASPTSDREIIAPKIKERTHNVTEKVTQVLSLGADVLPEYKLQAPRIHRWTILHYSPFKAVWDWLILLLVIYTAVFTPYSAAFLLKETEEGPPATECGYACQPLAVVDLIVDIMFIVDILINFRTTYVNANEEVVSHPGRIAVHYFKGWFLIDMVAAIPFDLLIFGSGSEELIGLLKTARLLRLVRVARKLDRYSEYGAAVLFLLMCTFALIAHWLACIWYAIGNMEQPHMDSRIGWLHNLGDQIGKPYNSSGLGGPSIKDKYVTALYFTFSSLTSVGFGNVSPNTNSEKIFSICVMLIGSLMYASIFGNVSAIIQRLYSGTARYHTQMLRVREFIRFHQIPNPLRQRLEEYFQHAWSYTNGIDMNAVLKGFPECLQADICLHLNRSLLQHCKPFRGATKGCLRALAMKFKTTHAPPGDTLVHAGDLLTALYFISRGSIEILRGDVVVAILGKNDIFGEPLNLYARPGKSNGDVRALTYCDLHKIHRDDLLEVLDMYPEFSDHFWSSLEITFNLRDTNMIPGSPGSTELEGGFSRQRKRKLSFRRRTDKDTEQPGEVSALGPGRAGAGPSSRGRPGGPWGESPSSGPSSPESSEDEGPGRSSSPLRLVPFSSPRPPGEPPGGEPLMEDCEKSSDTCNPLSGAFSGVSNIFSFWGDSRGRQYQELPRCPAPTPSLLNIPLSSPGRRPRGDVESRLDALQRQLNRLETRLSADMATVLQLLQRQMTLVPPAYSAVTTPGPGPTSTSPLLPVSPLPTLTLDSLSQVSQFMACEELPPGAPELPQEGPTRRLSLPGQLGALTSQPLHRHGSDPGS

Structure (SMILES) | hERG current change (%, negative = inhibition) at 1uM
O=C(Nc1cccc(Cl)c1)Nc1nnc(-c2ccncc2)s1 | 1.77%
Cc1ccc(-c2n[nH]c(=O)c3ccccc23)cc1S(=O)(=O)N(C)CCO | 4.26%
N=c1c2ccccc2nnn1-c1cccc(C(F)(F)F)c1 | 9.05%
O=c1[nH]snc1N1CCOCC1 | 13.2%
O=C(C[n+]1cc(-c2ccc(Cl)cc2)n2c1CCC2)Nc1nc(-c2ccccc2)cs1.[Cl-] | 13.4%
CCOC(=O)C1CCCN(Cc2cn(C)nc2-c2ccc3c(c2)OCCO3)C1 (stereo not drawn) | 6.35%
Cc1nc(C)c(C(=O)C2=C(O)C(=O)N(CCN(C)C)C2c2ccco2)s1 (stereo not drawn) | -2.74%
O=C(O)C1C2CCC(O2)C1C(=O)Nc1cccc(F)c1 (stereo not drawn) | 9.03%
C/C(=C\c1ccc2c(c1)OCO2)C(=O)c1c(C)cc(C)[nH]c1=O | 6.85%
O=C(NCC1CCCN(C(=O)c2cc(Cl)ccc2F)C1)c1ccc(F)cc1 (stereo not drawn) | 15.3%
COc1ccc(OC)c(C2C(C(=O)c3ccco3)=C(O)C(=O)N2CC2CCCO2)c1 (stereo not drawn) | 13.7%
CC(C)C[C@H](NC(=O)N1CCn2c1nc1ccccc12)C(=O)NCc1ccco1 | 9.59%
CCCCC(CCC(=O)Nc1nccs1)C(=O)O (stereo not drawn) | 10.2%
COc1ccc(C)cc1NC(=S)N1CCN(c2ncccn2)CC1 | 3.21%
O=C(c1cccc2nccnc12)N1CCCC(Nc2ccc(F)c(F)c2)C1 (stereo not drawn) | 9.5%
O=C(NCC(=O)N1CCCC1)c1ccc(Cl)cc1 | 7.65%
Cc1c(C(=O)N2CCN(C(=O)c3ccco3)CC2)sc2nc(-c3ccc(F)cc3)cn12 | -56.7%
CCCc1nc(NCCCOCC)c2nnn(Cc3ccccc3)c2n1 | 10.6%
CCC(C)NC(=O)CNC(=O)c1nn(-c2ccc(OC)cc2)c(=O)c2ccccc12 (stereo not drawn) | 12.3%
Cc1cc(N2CCN(C(=O)Nc3ccc(F)cc3F)CC2)c2ccccc2n1 | -27.5%
Cc1ccc(C)c(OCC(=O)NC2CCCCCC2)c1 | 11.7%
CC(=O)Nc1nc(-c2cccc3ccccc23)cs1 | 7.5%

Structure (SMILES) | hERG current change (%, negative = inhibition) at 1uM
COc1ccc(C(=O)Nn2c(CC(C)C)nc3cc(Cl)ccc3c2=O)c(OC)c1 | 13.7%
O=C(/C=C/c1ccco1)NC1=NCCS1 | 9.82%
Cc1ccnc(NC(=O)C(C)N2C(=O)c3ccccc3C2=O)c1 (stereo not drawn) | 11.3%
COc1ccc(C(=O)NCc2cccnc2)cc1S(=O)(=O)N1CCOCC1 | 11.3%
COc1ccc(C2C3=C(CC(c4ccco4)CC3=O)Nc3ccccc3N2C(C)=O)cc1 (stereo not drawn) | 7.19%
c1ccc(CCc2nc(-c3ccncc3)no2)cc1 | 11.3%
O=C(OCC(=O)N1CCCc2ccccc21)c1cccnc1Cl | 4.03%
C#CCn1c(=NC(=O)c2ccc(Br)s2)sc2cccc(OC)c21 | 18.1%
Br.CCOc1ccc(S(=O)(=O)NN2Cc3ccccc3C2=N)cc1 | 4.62%
O=C(C1=COCCO1)N1CCN(C(c2ccccc2)c2ccccc2)CC1 | 2.9%
Cc1ccc(/C=C2\C(=O)Nc3ccccc32)o1 | -0.451%
COc1cc2c(cc1OC)CN(S(=O)(=O)c1ccc3c(c1)OCCO3)CC2 | 0.62%
COc1ccc(-n2c(CNC(=O)c3ccc(S(=O)(=O)N4CCCC4)cc3)n[nH]c2=S)cc1 | 5.38%
CCN1C(=O)/C(=C/N(C(C)=O)c2ccccc2)N(c2ccccc2)C1=S | 1.59%
Cc1ncc([N+](=O)[O-])n1CC(=O)Nc1ccc2c(c1)OCO2 | 15.7%
COc1cc(/C=N/Nc2ccc(Cl)c(C(=O)O)c2)ccc1OC(=O)c1cccs1 | 5.92%
CCn1c(SCc2ccc(C(=O)Nc3nccs3)cc2)nnc1-c1ccc(NC(C)=O)cc1 | -1.35%
CCOC(=O)c1cc(C(=O)n2cc(Cl)cn2)nn1C | 11.3%
CN(N=Nc1cccc([N+](=O)[O-])c1)c1cccc([N+](=O)[O-])c1 | 2.49%
O=C(N/N=C/c1ccc[nH]1)c1ccncc1 | 9.61%
Cn1c(N2CCCCC2)cc(=O)n(C)c1=O | 20.3%
COC(=O)C1=C(C)NC2=C(C(=O)c3ccccc32)C1c1ccc(-c2ccc(C(=O)O)cc2)o1 (stereo not drawn) | 13.8%

Structure (SMILES) | hERG current change (%, negative = inhibition) at 1uM
CS(=O)(=O)N1c2ccccc2[C@@]2(Br)C[C@H]3C(=O)N[C@@H](Cc4ccccc4)C(=O)N3[C@@H]12 | 4.5%
COc1ccc(NC(=O)Nc2ccc(C(=O)N3CCOCC3)cc2)cc1OC | 15.4%
CN(C(=O)CSc1nnc(-c2c[nH]c3ccccc23)o1)C1CCS(=O)(=O)C1 (stereo not drawn) | 5.04%
CCn1c(SCC(=O)O)nc2ccccc21 | 9.72%
Cc1cccc(C(=O)NCCCN(C)CCCNC(=O)c2cccc(C)c2)c1 | 1.03%
Cn1c(SCC(=O)NCC2CCCO2)nc2c([nH]c3ccccc32)c1=O (stereo not drawn) | 1.07%
COc1ccc(S(=O)(=O)N2CCOCC2)cc1NC(=O)COC(=O)C1=COCCO1 | 14.1%
COc1cccc(NC(=O)COC(=O)COc2ccccc2[N+](=O)[O-])c1 | 0.148%
Cc1ccc(NC(=O)CN(C)CC(=O)Nc2ccccc2-c2ccccc2)cc1 | -15.3%
Cc1ccc(NC2CCCN(C(=O)CSc3ccncc3)C2)cc1C (stereo not drawn) | -6.38%
COc1cc(C(=O)Nc2cc(Cl)ccc2C)c(-n2cnnn2)cc1OC | 14.6%
OCCN(Cc1ccccc1)Cc1cccc(Cl)c1Cl | 7.44%
CCCc1c(C)nc(-c2ccc(C)cc2)nc1OC(=O)N(C)C | 10.3%
COc1ccccc1NS(=O)(=O)c1cc(-c2cnc(C3CC3)o2)ccc1C | 10.9%
CC(C)(C)OC(=O)N1CCC(c2c(C(=O)NCC3CCN(C4CCCC4)C3)cnn2-c2ccc(F)cc2)CC1 (stereo not drawn) | 1.45%
O=C(NC1CCc2ccccc21)C1CCN(S(=O)(=O)c2ccc(-n3cnnn3)cc2)CC1 (stereo not drawn) | -0.0102%
CCOC(=O)Nc1cc(=O)c2ccccc2o1 | -1.37%
O=C(CN1CCN(c2ccc(O)cc2)CC1)NC(=O)NCc1ccco1 | -1.36%
O=C1[C@H]2[C@@H](C(=O)N1c1cc(Cl)cc(Cl)c1)[C@]1(C(=O)Nc3ccccc31)N1CCC[C@@H]21 | 4.86%
CC(C)CNC(=O)c1cccc(NC(=O)COc2cccc([N+](=O)[O-])c2)c1 | 4.93%
CCOc1cccc(C(=O)Nc2ccccc2C(=O)N2CCOCC2)c1 | 12.2%
COc1cc(OC)c(NC(=O)c2ccccc2F)cc1Cl | 7.59%

Structure (SMILES) | hERG current change (%, negative = inhibition) at 1uM
Cc1cc(C)c(S(=O)(=O)N2CCC(C(=O)NCc3ccc(Cl)cc3Cl)CC2)c(C)c1 | 3.25%
O=C(Nc1nc2cc3c(cc2s1)OCCO3)c1ccco1 | 10.3%
CCOC(=O)c1sc(=S)n(-c2ccccc2)c1NC(C)=O | 16.4%
COc1ccc(NC(=S)N2CCC(C(=O)c3ccc(F)cc3)CC2)c(OC)c1 | 5.93%
O=C(Cn1[nH]c(=O)c2ccccc2c1=O)Nc1cccc(-c2nnc3n2CCCCC3)c1 | 2.85%
Cc1ccc(-n2cc3ccc([N+](=O)[O-])cc3n2)cc1 | 12.2%
O=S(=O)(NCC1OCCc2ccccc21)c1ccc(S(=O)(=O)N2CCOCC2)cc1 (stereo not drawn) | 3.94%
Cc1ccccc1C(C(=O)NC1CCCC1)N(C(=O)CNC(=O)c1ccco1)c1cccnc1 (stereo not drawn) | 10.5%
CCN(CC(=O)Nc1c(F)cccc1F)C(=O)C1CCC1 | 5.67%
CC(C)(C)n1nc2c(c1NC(=O)CCCc1ccccc1)CS(=O)C2 (stereo not drawn) | 12.7%
O=C(CCNC(=O)C1CCN(S(=O)(=O)c2ccccc2)CC1)NCc1ccc(Cl)c(Cl)c1 | 0.367%
CC(C)CC(=O)Nc1nnc(S(=O)(=O)N2CCCCCC2)s1 | 4.45%
C=CCNC(=S)NNC(=O)c1ccco1 | -0.0409%
COc1cccc(OCc2cc(C(=O)N3CCN(c4ccccc4O)CC3)no2)c1 | 24.7%
CCCc1nnc(NC(=O)CS(=O)(=O)c2ccc(C)cc2)s1 | 13.6%
O=C(NCCCN1CCCC1=O)c1ccc2c(c1)NC(=O)c1ccccc1S2 | 14.9%
ClC1C(Cl)C(Cl)C(Cl)C(Cl)C1Cl (stereo not drawn) | 11.8%
CCOc1ccc(CNC(=O)CCCc2cn(C)c3ccccc23)cc1 | 9.98%
O=C(Nc1ccc(NC(=O)c2ccc(Cl)c(S(=O)(=O)N3CCOCC3)c2)cc1)c1ccccc1 | 1.11%
O=C(COC(=O)CCC(=O)c1ccc(F)cc1)Nc1ccc(F)cc1F | 9%
O=C(COc1ccc(Br)cc1)N1CCN(Cc2c[nH]c3ccccc23)CC1.O=C(O)C(=O)O | 0.797%
